Screen size: about 44,000 compounds; about 340 (0.77%) were called active. About 5% were inconclusive and are not listed. Calls come from the whole dose curve; as a rule, active = well fitted inhibition curve with a large enough effect; inconclusive = small, poorly fitted or top-dose-only effect; inactive = flat fitted curve, though single readings scatter. This is one part of the list.
Assay: Acumen qHTS Assay for Inhibitors of the mTORC1 Signaling Pathway in MEF (Tsc2-/-, p53-/-) Cells: Sytravon; note: nearly all actives have a fitted effect of over 50% in size;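 for activity change, negative = inhibition: plate controls were DMSO for no effect and rapamycin for full effect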
Conditions: phospho-rpS6 immunofluorescence/PI, 24 h; series mostly up to 38.3 µM; activity change, negative = inhibition: at the top concentration
In short: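 Tsc2-/-, p53-/- mouse embryonic fibroblasts (empty-vector line) exposed to compound 24 hrs at 37 C, fixed, immunostained for phospho-rpS6 and counterstained with propidium iodide. Acumen laser scanning gives % positive cells from Alexa 488/PI ratio, thresholded using 7.5 nM rapamycin; PI count gives viability.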
Potency is the fitted concentration of half-maximal effect.

Compound | activity change, negative = inhibition | Potency
CCc1nn(CC(=O)N2CCCCC2)c(=O)c2cc3sc(C)cc3n12 | inactive: -5.91% | 
Cc1ccc(C)c(Cn2c(=O)n(C(C)C)c(=O)c3oc4ccccc4c32)c1 | inactive: -0.811% | 
O=C(Nc1ccc2c(c1)N(C1CCCC1)C(=O)c1ccccc1S2)c1ccccc1F | inactive: -4.36% | 
COc1ccc(-c2cn3cccnc3n2)cc1NC(=O)Nc1ccc(Cl)cc1 | inactive: -5.66% | 
Cc1ccc(C(=O)c2oc3ccccc3c2NC(=O)COc2ccc(C(C)C)cc2)cc1 | inactive: 1.98% | 
O=C(Nc1ccc(S(=O)(=O)Nc2ncccn2)cc1)c1cc(=O)c2ccccc2o1 | inactive: 2.97% | 
CCOc1ccc(NC(=O)c2ccc3c(c2)CCN3S(=O)(=O)CC)cc1 | inactive: -0.231% | 
O=C(CC1C(=O)N(c2ccccc2)C(=O)N1Cc1ccc(F)cc1)Nc1cccc(F)c1 (stereo not drawn) | inactive: -3.18% | 
COc1ccc(-c2cc(-c3ccccc3)nc3c2COc2ccc(F)cc2-3)cc1 | inactive: -2.62% | 
CCN(CC)C(=O)Cn1c(=O)cc(C)c2c(C)nn(-c3ccc(C)cc3)c21 | inactive: 1.96% | 
CC(C)c1nn2c(=O)cc(COC(=O)c3ccc(NC(=O)C4CCCCC4)cc3)nc2s1 | inactive: -19.6% | 
Cc1ccc(CSc2ncc(Cl)c(C(=O)NCc3ccccc3)n2)cc1 | inactive: -4.36% | 
COc1ccc2[nH]c3c(c2c1)CCN(C(=O)c1cccc(Cl)c1)C3c1ccc(F)cc1 (stereo not drawn) | inactive: 0.0579% | 
Cc1ccc(S(=O)(=O)N2CCCc3cc(NS(=O)(=O)c4cc(C)ccc4C)ccc32)cc1 | inactive: 13.9% | 
Cc1nc2sccn2c(=O)c1S(=O)(=O)Nc1cc(Cl)ccc1O | inactive: -6.44% | 
CCOC(=O)c1cc(-c2ccc(F)cc2)n(CC(=O)NC2CCCCCC2)c1C | inactive: 0.591% | 
COc1ccc(NC(=O)c2c(NC(=O)COc3ccccc3)sc3c2CCC(C(C)(C)C)C3)cc1 (stereo not drawn) | inactive: 4.37% | 
Cc1ccc(CN(Cc2ccco2)C(=O)c2ccc(OCC(C)C)cc2)cc1 | inactive: -7.6% | 
Cc1ccc(C)c(N2CCN(C(=O)c3cc4c(=O)n(Cc5ccccc5)ccc4nc3C)CC2)c1 | inactive: -9.68% | 
Cc1ccc2c(c1)N(C(=O)N1CCC(C(=O)NCCc3ccc(Cl)cc3)CC1)CC(C)O2 (stereo not drawn) | inactive: 6.27% | 
Cc1ccc(-n2nc(C)c3c(C)c(CCC(=O)NCc4ccccc4Cl)c(C)nc32)cc1C | inactive: 0.515% | 
CCOc1cccc2c1N[C@@H](c1ccc(C(=O)O)cc1)[C@H]1CC=C[C@@H]21 | inactive: 0.222% | 
Cc1cccc(NS(=O)(=O)c2ccc3[nH]c4c(c3c2)CCCCCC4)c1 |  | active: 13.1 µM
Cc1cccc(Cn2cccc2CNS(=O)(=O)c2ccccc2F)c1 | inactive: -1.12% | 

Compound | activity change, negative = inhibition | Potency
CCc1ccc(CNC(=O)Cn2nc(C)n3c(cc4cc(C)ccc43)c2=O)cc1 | inactive: -1.27% | 
CCc1ccc(NC(=O)CN2C(=O)C(c3ccc(C)cc3)=NC23CCCCC3)cc1 | inactive: -1.71% | 
COc1ccc(NC(=O)C(Cc2ccccc2)NS(=O)(=O)c2ccc3c(c2)CCC(=O)N3)c(OC)c1 (stereo not drawn) | inactive: -4.42% | 
CCCCOc1ccc(C2=NC(c3ccncc3)=Nc3ccc(OCC)cc3N2)cc1 | inactive: -3.66% | 
CCOc1ccccc1CNC(=O)C1CCN(c2nnc(-n3c(C)ccc3C)s2)CC1 | inactive: -7.53% | 
O=C(Cn1c(=O)n(CC2CCC(C(=O)NCCc3ccccc3)CC2)c(=O)c2ccccc21)Nc1ccccc1 (stereo not drawn) | inactive: -19.7% | 
COc1ccc2sc(N(Cc3cccnc3)C(=O)C3CCCCC3)nc2c1 | inactive: 0.0636% | 
Cc1nn(-c2ccc(F)cc2)c(-n2cccc2)c1C(=O)NCCc1ccc(Cl)cc1 | inactive: -8.29% | 
Cc1cc(C)n2nc(CNS(=O)(=O)c3ccc(C)c(C)c3)nc2n1 | inactive: -4.9% | 
CC(C)OCCCn1c(SCC(=O)c2ccccc2)nc2c(sc3ccccc32)c1=O | inactive: -7.6% | 
O=C(C1CCN(S(=O)(=O)c2cccc3nonc23)CC1)N1CCN(c2cccc(Cl)c2)CC1 | inactive: -11.2% | 
COc1ccc(NC(=O)CSc2nc3nc(C)c(Cc4ccccc4)c(C)n3n2)cc1OC | inactive: -0.642% | 
Cc1ccc(Cn2c(=O)c3ccccc3n3c(-c4cccc(O)c4)nnc23)cc1 | inactive: 4.17% | 
CCN(CC)CCOC(=O)c1ccc(NC(=O)Cn2ncc3c2-c2cc(C)ccc2OC3)cc1 | inactive: -2.17% | 
COc1cccc(CNC(=O)c2ccc(-c3nc(COc4ccccc4)c(C)o3)cc2)c1 | inactive: -3.94% | 
Cc1ccc(CCNC(=O)c2cc3c(s2)-c2c(C)cccc2OC3)cc1 | inactive: -7.09% | 
Cc1ccc2nc(COc3ccccc3NC(=O)C(C)(C)C)cc(=O)n2c1 | inactive: 6.73% | 
CCOc1ccc(C2CC(c3c(O)n(C4CCCCC4)c(=O)[nH]c3=O)=Nc3ccccc3S2)cc1 (stereo not drawn) | inactive: -2.26% | 
O=C(Cc1ccc(F)cc1)NCc1ccc2c(c1)CCN2C(=O)c1ccc(F)cc1 | inactive: -25.6% | 
Cc1ccc(NS(=O)(=O)c2ccc(-n3cccn3)cc2)cc1Cl | inactive: -2.22% | 
O=C(CSc1nnc2ccc3ccccc3n12)Nc1ccccc1Cl | inactive: -0.107% | 
CCOC(=O)N1CCc2c(sc3c2c(=O)n(-c2ccccc2C(F)(F)F)c(=O)n3Cc2ccccc2C)C1 | inactive: 1.89% | 
COC(=O)c1cc2oc3ccccc3c2n1CC(=O)Nc1ccc(Cl)cc1F | inactive: 0.0588% | 
COc1cccc2c1cc1c(=O)n(CC(=O)NCc3ccc(C)o3)nc(C)n12 | inactive: -17.8% | 
